Source: US20230057622A1 (ZENSUN SHANGHAI SCIENCE AND TECHNOLOGY, published 2023)
Read-outs that look alike come from different tables or passages of the source.

Experiments:
receptor on MCF-7 cells [1] = assay: cell-based or functional assay
receptor on MCF-7 cells [2] = assay: cell-based or functional assay; remark: listed apart in the source

Row | Binder | EC50 (receptor on MCF-7 cells [1]) [nM] | EC50 (receptor on MCF-7 cells [2]) [nM]
1 | recombinant NRG fusion protein with an amino acid sequence of SEQ ID NO: 2 (Fc fusion) SHLVKCAEKEKTFCVNGGECFMVKDLSNPSRYLCKCPNEFTGDRCQNYVMASFYKAEELYQGGGGSGGGGSGGGGS[human IgG1 Fc skipped] | 2.48 | –
2 | NRG-IgG4-Fc fusion polypeptide (Fc fusion) SHLVKCAEKEKTFCVNGGECFMVKDLSNPSRYLCKCPNEFTGDRCQNYVMASFYKAEELYQGGGGSGGGGSGGGGS[human IgG4 Fc with changes and a few adjoining residues skipped] | – | 3.66
